According to a collection of fitness landscapes (doi:10.1126/science.1257360):
The list shows a part of the results.

B1: PhoQ; a variant is named by its letters at X, in order, P23837 (parent)
chain: MKKLLRLFFPLSLRVRFLLATAAVVLVLSLAYGMVALIGYSVSFDKTTFRLLRGESNLFYTLAKWENNKLHVELPENIDKQSPTMTLIYDENGQLLWAQRDVPWLMKMIQPDWLKSNGFHEIEADVNDTSLLLSGDHSIQQQLQEVREDDDDAEMTHSVAVNVYPATSRMPKLTIVVVDTIPVELKSSYMVWSWFIYVLSANLLLVIPLLWVAAWWSLRPIEALAKEVRELEEHNRELLNPATTRELTSLVRNLNRLLKSERERYDKYRTTLTDLTHSLKTPLXXLQXXLRSLRSEKMSVSDAEPVMLEQISRISQQIGYYLHRASMRGGTLLSRELHPVAPLLDNLTSALNKVYQRKGVNISLDISPEISFVGEQNDFVEVMGNVLDNACKYCLEFVEISARQTDEHLYIVVEDDGPGIPLSKREVIFDRGQRVDTLRPGQGVGLAVAREITEQYEGKIVAGESMLGGARMEVIFGRQHSAPKDE

Variants of: B1
Test: enrichment ratio after two sorts for PhoP signalling (ratio (wild type AVST 3.29)); higher = more functional
Conditions: with PhoP (E. coli)

| Variant | enrichment ratio |
| --- | --- |
| AMWM | ≤ 0.25 |
| GIYY | ≤ 0.25 |
| SLYC | ≤ 0.25 |
| FCFI | ≤ 0.25 |
| FTMY | 4.04 |
| IEST | ≤ 0.25 |
| LVLY | ≤ 0.25 |
| NHGG | ≤ 0.25 |
| RQWC | ≤ 0.25 |
| WQQF | ≤ 0.25 |
| VSNV | ≤ 0.25 |
| YMIF | ≤ 0.25 |
| TGKD | ≤ 0.25 |
| PVVD | ≤ 0.25 |
| GYYS | ≤ 0.25 |
| SEMH | 19.3 |
| AQFP | ≤ 0.25 |
| WNKN | ≤ 0.25 |
| LQPV | ≤ 0.25 |
| NNGM | ≤ 0.25 |
| LIQR | ≤ 0.25 |
| KVKS | ≤ 0.25 |
| SANL | ≤ 0.25 |
| TMFN | ≤ 0.25 |
| MWGS | ≤ 0.25 |

| Variant | enrichment ratio |
| --- | --- |
| RCMG | ≤ 0.25 |
| RVGF | ≤ 0.25 |
| RIIC | ≤ 0.25 |
| KAVV | ≤ 0.25 |
| TTQY | 2.02 |
| ESFR | ≤ 0.25 |
| HKSL | ≤ 0.25 |
| PYGK | ≤ 0.25 |
| KLMT | ≤ 0.25 |
| SQSF | 7.01 |
| NKWM | ≤ 0.25 |
| LMGK | ≤ 0.25 |
| QQNG | ≤ 0.25 |
| THAT | ≤ 0.25 |
| KKGA | ≤ 0.25 |
| DVTN | ≤ 0.25 |
| KQQF | ≤ 0.25 |
| TPTR | ≤ 0.25 |
| VQSQ | ≤ 0.25 |
| PKLH | ≤ 0.25 |
| VTHM | ≤ 0.25 |
| APPS | ≤ 0.25 |
| LQVH | ≤ 0.25 |
| PQWR | ≤ 0.25 |
| KFKS | ≤ 0.25 |

| Variant | enrichment ratio |
| --- | --- |
| NWDF | ≤ 0.25 |
| SMAK | 10.7 |
| FLWP | ≤ 0.25 |
| EHCR | ≤ 0.25 |
| VKEP | ≤ 0.25 |
| TVYV | 0.466 |
| ECQP | ≤ 0.25 |
| KQLY | ≤ 0.25 |
| LRVA | ≤ 0.25 |
| IRWH | ≤ 0.25 |
| LNLD | ≤ 0.25 |
| PRGV | ≤ 0.25 |
| TWAC | ≤ 0.25 |
| YKYF | ≤ 0.25 |
| HHLH | ≤ 0.25 |
| FSVQ | 0.364 |
| CRVL | ≤ 0.25 |
| ASPW | ≤ 0.25 |
| SCAA | 5.68 |
| MKVC | ≤ 0.25 |
| VHTV | ≤ 0.25 |
| NIPQ | ≤ 0.25 |
| HCLN | ≤ 0.25 |
| WSND | ≤ 0.25 |
| IYDM | ≤ 0.25 |

| Variant | enrichment ratio |
| --- | --- |
| THDA | ≤ 0.25 |
| RSQR | ≤ 0.25 |
| SQDN | ≤ 0.25 |
| ASRD | ≤ 0.25 |
| IIAV | ≤ 0.25 |
| LNHV | ≤ 0.25 |
| GIRY | ≤ 0.25 |
| QLGS | ≤ 0.25 |
| QHAA | ≤ 0.25 |
| NALF | ≤ 0.25 |
| PPFF | ≤ 0.25 |
| SHVR | ≤ 0.25 |
| WIFP | ≤ 0.25 |
| ELKF | ≤ 0.25 |
| MSCD | ≤ 0.25 |
| HFCD | ≤ 0.25 |
| VVLI | ≤ 0.25 |
| IQMH | ≤ 0.25 |
| VRSI | ≤ 0.25 |
| FDHI | ≤ 0.25 |
| LDCG | ≤ 0.25 |
| VPVL | ≤ 0.25 |
